Experimental data from the supplement of paper PMC3334620.
The full ranking holds about 33,000 sequences; the median of “E-score (-0.5 to 0.5)” is about -0.016, and the highest 2% start at about 0.31. Some of the results follow.

What follows are sequences tested against Cst6 (UniProt P40535) (assay: PBM E-score (8-mer binding enrichment) (E-score (-0.5 to 0.5)); higher = stronger / more preferred TF binding; most listed sequences are background and not binding sites). Conditions: protein concentration: 200 nM; construct: GST-DNA-binding domain.
Summary of the method: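 Using PURExpress in vitro transcription/translation, GST-tagged yeast transcription factors were made in full-length or DNA-binding-domain form. These were applied at about 100-200 nM to double-stranded universal all-10-mer Agilent arrays, and bound protein was detected with fluorescent anti-GST. Scans were normalised with masliner before the Universal PBM Analysis Suite assigned E-scores to ungapped eight-base words pooled with their reverse complements.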

Row | Sequence | PBM E-score
1 | TCCCGACA | -0.0435
2 | AGACTTCA | -0.143
3 | AATAAGAA | 0.312
4 | AAAGAATA | 0.226
5 | GTCCTCTA | -0.308
6 | ATGGGCCC | -0.269
7 | CAACGGAC | -0.0775
8 | CTTCGTGC | 0.0173
9 | AGGGCGTC | 0.0413
10 | ATTTTACA | 0.0693
11 | CTCCCCTA | -0.32
12 | CGCTTGCA | -0.00487
13 | CGCCGCAG | 0.171
14 | TAGCCTCA | -0.177
15 | CTCAATCC | 0.0197
16 | GGCGACTA | -0.115
17 | ACGCCAGC | -0.0168
18 | TACCACAA | 0.156
19 | AGCAGGCA | -0.208
20 | AGTCGATC | -0.135
21 | TCCTAACA | 0.125
22 | AAAACACC | 0.166

Row | Sequence | PBM E-score
23 | ACGACAAA | 0.199
24 | CTTCAGCC | -0.212
25 | ACGTAGCG | 0.129
26 | AAGAGTCT | -0.268
27 | CAAGGTCG | -0.204
28 | CGAGTTAA | 0.142
29 | CACTGAAG | 0.0206
30 | CGGGCCTC | -0.0749
31 | AATTGGTA | 0.0188
32 | CCATTAGC | -0.0497
33 | CGATTCAG | 0.0233
34 | GCTGTCTA | -0.161
35 | CGTGCCTA | -0.0374
36 | CTCAGGCC | -0.258
37 | ATCCCCCC | -0.428
38 | ACCGCAAC | 0.0509
39 | CGTATATC | 0.086
40 | CGCCAGGC | -0.181
41 | CTTTTCCA | -0.0772
42 | AGTACTCG | -0.0502
43 | ACTCCGCT | -0.265
44 | AGGTTAGA | -0.25

Row | Sequence | PBM E-score
45 | AGTTCACA | 0.0399
46 | TCAATCAA | 0.12
47 | ATGGAGTG | -0.152
48 | ACTATCAT | 0.193
49 | AAGTGAAG | -0.0822
50 | AAACGGCT | 0.105
51 | GCATGCAC | 0.0382
52 | CCGAATCA | -0.0161
53 | GCCATTAA | 0.102
54 | ACAGTCCC | -0.391
55 | TAGGGGAA | -0.175
56 | CCTTGAAG | -0.00459
57 | ACCCCATA | -0.17
58 | AGAAGGAT | -0.0435
59 | GCGTTATA | 0.0248
60 | GACTCCCA | -0.274
61 | TACGTGCA | 0.186
62 | CACATCAA | 0.162
63 | GGGTCGTA | -0.173
64 | GACACGAA | -0.0508
65 | AGCTCTAG | -0.121
66 | GAATCAAC | 0.16

Row | Sequence | PBM E-score
67 | CATGGGTC | -0.0524
68 | ATCCTGTA | 0.0281
69 | AGCAAATG | -0.0221
70 | TAGAGACA | -0.0631
71 | GGCATTAC | 0.3
72 | GAGATCTC | -0.183
73 | CTGCGTCC | -0.11
74 | CAATCGGG | -0.116
75 | GGCTTTAA | 0.0896
76 | ATCGTGAG | -0.0624
77 | CGCGTCAA | 0.211
78 | ATACTAAA | 0.264
79 | AGCCAAAC | 0.0206
80 | CGAATCTC | -0.13
81 | GCACGCAA | -0.0783
82 | CGCCTAGC | -0.238
83 | CGCCTACA | -0.107
84 | AGTAACAA | 0.147
85 | CTACAGAG | -0.0332
86 | GGAATATA | 0.0672
